Several values for one entry are separate records, joined by “and”; a condition that tells them apart may be missing. Identical values can stand only once. Hit rate of the full screen: of about 270,000 compounds, about 5,800 (2.1%) were called active. The inconclusive results got no clear call from the source; some entries with a clear call stand among them for comparison. Calls come from the whole dose curve; as a rule, active = well fitted inhibition curve with a large enough effect; inconclusive = small, poorly fitted or top-dose-only effect; inactive = flat fitted curve, though single readings scatter. A potency beside an inconclusive call is a rough fit, not a confirmed value.
target: Microtubule-associated protein tau (Homo sapiens) (UniProt P10636); assay: qHTS for Inhibitors of Tau Fibril Formation, Thioflavin T Binding; details: recombinant tau K18 P301L (four-repeat tau fragment), heparin-induced fibrillization, ThT fluorescence; series mostly up to 57.4 µM; activity, negative = inhibition: at the top concentration; note: nearly all actives have a fitted effect of over 55% in size
Summary of the method: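 In this qHTS, human K18 P301L tau is incubated with compound and heparin for 6 hr at 37 C, and Thioflavin T fluorescence then reports fibril load.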
% is set by controls: 0 for no effect and ±100 for the full control effect; potency is the fitted concentration of half-maximal effect; tags give direction and shape of the fitted curve.

Sequence of UniProt P10636 (P10636 whole entry, looked up, the tested form may be a part): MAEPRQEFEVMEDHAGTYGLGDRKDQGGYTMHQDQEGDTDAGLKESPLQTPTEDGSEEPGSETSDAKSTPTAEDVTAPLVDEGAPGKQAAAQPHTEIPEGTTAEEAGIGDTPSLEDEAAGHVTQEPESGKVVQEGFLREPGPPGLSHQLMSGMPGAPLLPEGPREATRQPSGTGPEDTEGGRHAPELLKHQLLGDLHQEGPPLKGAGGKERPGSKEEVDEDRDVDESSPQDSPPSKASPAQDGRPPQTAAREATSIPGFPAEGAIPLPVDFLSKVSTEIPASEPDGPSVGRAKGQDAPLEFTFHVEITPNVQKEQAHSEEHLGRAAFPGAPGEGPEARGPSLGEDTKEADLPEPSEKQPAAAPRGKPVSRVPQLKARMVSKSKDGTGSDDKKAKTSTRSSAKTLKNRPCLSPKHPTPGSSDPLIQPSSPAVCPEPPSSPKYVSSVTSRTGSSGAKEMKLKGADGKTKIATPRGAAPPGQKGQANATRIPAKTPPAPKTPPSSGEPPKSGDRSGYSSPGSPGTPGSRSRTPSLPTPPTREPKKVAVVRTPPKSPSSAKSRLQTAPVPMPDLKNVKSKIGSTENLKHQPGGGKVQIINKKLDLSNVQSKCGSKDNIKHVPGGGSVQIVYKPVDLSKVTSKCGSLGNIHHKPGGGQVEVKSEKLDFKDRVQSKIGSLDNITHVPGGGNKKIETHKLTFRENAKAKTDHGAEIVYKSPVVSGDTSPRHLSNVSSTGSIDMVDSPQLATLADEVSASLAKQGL

SMILES | activity, negative = inhibition | Potency
Cn1c(=O)c2nc(SCC(=O)Nc3cc(Cl)ccc3Cl)n(C)c2n(C)c1=O | inactive: 3.01% | 
CC(C)(C)c1ccc(C(=O)Nc2ccc(CN3CCS(=O)(=O)CC3)cc2)cc1 |  | inconclusive: 1 µM [inhibitor, partial curve]
CCNc1nc(-c2ccc(OC(F)F)cc2)c(C)s1 |  | inconclusive: 28.2 µM [inhibitor, partial curve]
C/C(=N\Nc1ccc(S(N)(=O)=O)cc1[N+](=O)[O-])c1ccccc1O |  | inconclusive: 7.94 µM [inhibitor, partial curve]
CC1CC(C)CN(c2ncc3c(n2)CC(c2ccccc2Cl)CC3=O)C1 (stereo not given) | inactive: -10.8% | 
CCOc1ccc(/C=C/c2c([N+](=O)[O-])c(=O)n(C)c(=O)n2C)cc1 |  | inconclusive: 12.6 µM [inhibitor, partial curve]
CCOC(=O)C(=CNc1cc(C)ccc1[N+](=O)[O-])C(=O)OCC |  | inconclusive: 14.1 µM [inhibitor, partial curve]
O=c1c2cc3c(cc2nc2sc(Nc4ccc(F)cc4F)nn12)OCO3 |  | inconclusive: 5.62 µM [inhibitor, partial curve]
N#Cc1c(NC(=O)c2ccncc2)sc2c1CCC2 |  | inconclusive: 22.4 µM [inhibitor, partial curve]
COC(=O)C1=C(N)OC2=C(C(=O)CC(C)(C)C2)C1c1cccs1 (stereo not given) | inactive: -8.28% | 
CCC(C)NC(=O)Cn1c(=O)n(Cc2ccc(C(=O)NCCCOC)cc2)c(=O)c2ccccc21 (stereo not given) | inactive: -0.631% | 
COc1cc(C=O)ccc1OCCOCCOc1ccccc1Cl |  | inconclusive: 31.6 µM [inhibitor, single point]
CCCCOC(=O)c1ccc(NS(=O)(=O)c2c(C)nc3scc(C)n3c2=O)cc1 | inactive: -0.103% | 
Cc1ccc(CNC(=O)Cn2ncc3c(C)n(Cc4ccc(Cl)cc4)c(C)c3c2=O)cc1 | inactive: -4% | 
COc1ccc(Nc2cc(C(=O)NCCc3ccccc3)c3ccccc3n2)cc1OC | inactive: -3.89% | 
CC(C)CCNC(=O)C12CN(Cc3ccccc3)CC1C(c1ccc([N+](=O)[O-])cc1)=NO2 (stereo not given) | inactive: -9.31% | 
O=C1CC(SCc2nc3ccccc3[nH]2)C(=O)N1c1ccc(F)c(Cl)c1 (stereo not given) |  | inconclusive: 11.2 µM [inhibitor, partial curve]
Nc1ccc(NC(=O)c2cccs2)cc1 |  | inconclusive: 35.5 µM [inhibitor, single point]
C=CCn1c(SCC(=O)c2cc(C)n(Cc3cccs3)c2C)nnc1-c1ccncc1 |  | inconclusive: 39.8 µM [inhibitor, single point]
O=C(Oc1ccc([N+](=O)[O-])cc1)c1cccnc1 |  | inconclusive: 28.2 µM [inhibitor, partial curve]
O=c1[nH]c2cc3c(cc2cc1CN(CCc1ccccc1)Cc1nnnn1C1CCCC1)OCCO3 |  | inconclusive: 17.8 µM [inhibitor, single point]
Cc1ccc(-c2nnc(SCC(=O)Nc3ccc(N4CCOCC4)cc3)o2)cc1 |  | inconclusive: 1.78 µM [inhibitor, full curve]
CCOC(=O)/C(=N/Nc1ccccc1OC)N1CCCc2ccccc21 |  | inconclusive: 44.7 µM [inhibitor, single point]
CCCCCCOC(=O)C[N+](C)(C)CCOC1CC2CCC1(C)C2(C)C (stereo not given) |  | inconclusive: 31.6 µM [inhibitor, partial curve]

SMILES | activity, negative = inhibition | Potency
O=c1c(O)c(-c2cccs2)oc2ccc(Cl)cc12 |  | inconclusive: 28.2 µM [inhibitor, partial curve]
C=CCn1c(SCC(=O)Nc2ccc(N(C)C)cc2)nnc1-c1cccc(C)c1 |  | inconclusive: 15.8 µM [inhibitor, partial curve]
C=CCN1C(=O)C2(NNc3ccccc3O2)c2ccccc21 (stereo not given) |  | active: 7.08 µM
Cc1ccccc1Oc1cc(NC(=O)Cn2cnc([N+](=O)[O-])c2)cc([N+](=O)[O-])c1 |  | inconclusive: 22.4 µM [inhibitor, single point]
Cc1cccc(Nc2nc(-c3ccccc3)c(C(=O)Nc3cccnc3)s2)c1 |  | inconclusive: 12.6 µM [inhibitor, partial curve]
CSc1ccc(CNCc2c(C(=O)O)c(C)n(Cc3ccc(F)cc3Cl)c2C)cc1 |  | inconclusive: 11.2 µM [inhibitor, partial curve, poor fit]
CC1=C/C(=C\c2ccc3c(c2)OCO3)C(=O)S1 |  | active: 6.31 µM
Cc1cccc(N(CC(=O)N/N=C/c2cc([N+](=O)[O-])ccc2Cl)S(C)(=O)=O)c1C | inactive: -17.2% | 
Cc1cccc(N2CCN(C(=O)Cn3cccc3)CC2)c1C |  | inconclusive: 44.7 µM [inhibitor, single point]
Cc1ccc(Cl)c2sc(N3CCN(C(=O)C4CC4)CC3)nc12 |  | inconclusive: 14.1 µM [inhibitor, partial curve]
CSc1nsc(/C=C/Nc2ccc(Cl)cc2)c1C#N |  | active: 15.8 µM
S=c1[nH]nc(C2CCCCC2)n1/N=C/c1ccncc1 | inactive: 3.27% | 
Cc1ccc(CC(=O)Nc2nc3c(s2)CCCC3)cc1 | inactive: -9.75% | 
COc1ccc2cc(CCC(C)=O)ccc2c1 |  | inconclusive: 35.5 µM [inhibitor, partial curve, poor fit]
CN1C(=O)/C(=C/c2ccco2)SC1=Nc1ccc(N2CCOCC2)cc1 |  | inconclusive: 8.91 µM [inhibitor, partial curve]
Cn1nc(C(=O)N2CCN(C(c3ccccc3)c3ccccc3)CC2)c2ccccc2c1=O |  | inconclusive: 44.7 µM [inhibitor, single point]
Cc1ccc(C)n1-c1nnc(N2CCC(C(=O)NCc3ccccc3Cl)CC2)s1 |  | inconclusive: 25.1 µM [inhibitor, single point]
CC1=CC[C@@]23CCCN2C(=O)CCC[C@H]3C1 | inactive: -10.3% [at 126 µM] | 
CC1(C)CC(CC(=O)NNc2nc(-c3ccccc3)cs2)C(=O)O1 (stereo not given) | inactive: -4.74% | 
O=C(CN1CCN(c2ccc(O)cc2)CC1)Nc1cc(S(=O)(=O)N2CCCCC2)ccc1Cl |  | inconclusive: 25.1 µM [inhibitor, single point]
COc1cc2c(cc1OC)CN(C(=O)CSc1nnc3scc(-c4ccccc4)n13)CC2 | inactive: -14% | 
CCSC1=N/C(=C\c2ccc3c(c2)OCO3)C(=O)S1 |  | inconclusive: 15.8 µM [inhibitor, partial curve]
COc1cccc(OC)c1-c1nn2c(-c3cc(-c4ccccc4)n[nH]3)nnc2s1 |  | inconclusive: 20 µM [inhibitor, partial curve]
Brc1ccc(CSc2ncn[nH]2)cc1 | inactive: 0.576% | 

SMILES | activity, negative = inhibition | Potency
CC(=O)N(CCC(Cc1ccccc1)c1ccc2c(c1)OCO2)Cc1ccc(Cl)cc1 (stereo not given) |  | inconclusive: 15.8 µM [inhibitor, partial curve]
Nc1ncc(S(=O)(=O)NCc2cccc(Cl)c2)cn1 | inactive: -9.51% | 
COc1cc(/C=N/Nc2ccccn2)ccc1O |  | inconclusive: 12.6 µM [inhibitor, partial curve]
O=C(Cn1c(=O)n(Cc2ccco2)c(=O)c2c3c(sc21)CCCCC3)Nc1ccccc1 |  | inconclusive: 28.2 µM [inhibitor, single point]
Cc1ccc2oc(=O)c(/C=C(\O)c3sc(C)nc3C)nc2c1 |  | inconclusive: 14.1 µM [inhibitor, partial curve]
COc1ccc(C(=O)Nc2ccc3[nH]c(-c4cccc(OC)c4)cc(=O)c3c2)cc1 |  | inconclusive: 282 nM [inhibitor, full curve] and inconclusive: 1.12 µM [inhibitor, full curve, poor fit]
Cc1onc(-c2ccccc2)c1C(=O)NC(=S)NNC(=O)c1ccc(O)cc1O |  | inconclusive: 20 µM [inhibitor, single point]
CC1(C)CC(=O)C2=C(C1)OC(N)=C(C#N)C2c1ccccc1 (stereo not given) | inactive: 3.59% | 
O=C(/C=C/Nc1ccc(F)cc1F)c1cccs1 | inactive: -1.33% | 
O=C1[C@@H]2CSC(c3ccc(F)cc3)N2C(=O)N1c1ccc(Cl)cc1 (stereo not given in full) | inactive: 0.771% | 
CCOc1ccc(/C=C2\SC(=S)N(C)C2=O)cc1OC |  | inconclusive: 1.78 µM [inhibitor, full curve]
CNC(=O)CSc1nnc(-c2ccccn2)n1Cc1ccco1 | inactive: -5.05% | 
COc1cc2c(-c3ccccc3C)nc3c(c(C)nn3-c3ccccc3)c2cc1OC |  | inconclusive: 31.6 µM [inhibitor, single point]
CCCN(CCC)C(=O)Cn1c(=O)n(-c2cccc(C(F)(F)F)c2)c(=O)c2c(C)c(C)sc21 | inactive: -3.44% | 
COc1cc(/C=C(\C#N)c2ccccn2)ccc1OCC(=O)Nc1cccc(C(F)(F)F)c1 |  | inconclusive: 14.1 µM [inhibitor, partial curve, poor fit]
COc1cc(C=C2C(=O)c3ccccc3C2=O)ccc1O |  | inconclusive: 12.6 µM [inhibitor, partial curve]
COc1ccc(NC2=CC(=S)NC(C)(C)C2)cc1 |  | inconclusive: 31.6 µM [inhibitor, partial curve, poor fit]
CCOc1ccccc1NC(=O)CSc1nc2ccccc2c2nc(CCn3cncc3C)nn12 | inactive: -10.6% | 
COc1ccccc1NC(=O)C1CCCN(c2nnc(C)c3c(C)n(-c4ccccc4)nc23)C1 (stereo not given) | inactive: -9.58% | 
CC(=O)c1cc(NC(=O)c2ccccc2)c(=O)oc1/C=C/N(C)C |  | inconclusive: 25.1 µM [inhibitor, partial curve]
CCOC(=O)c1ccc(NC(=O)CC2S/C(=N/N=C/c3c[nH]c4ccccc34)NC2=O)cc1 (stereo not given) |  | inconclusive: 3.98 µM [inhibitor, partial curve]
COc1ccc(NC(=O)c2ccc3nc(CCc4ccccc4)oc3c2)cc1 |  | inconclusive: 0.316 µM [inhibitor, full curve]

Reference: PubChem BioAssay AID1460 (National Center for Advancing Translational Sciences (NCATS), 2008)
